Results from paper PMC12820563, “FoxP3 forms a head-to-head dimer in vivo and stabilizes its multimerization on adjacent microsatellites”.
The other results are listed elsewhere or left out.

biological target: T1, MBP-FoxP1dN (Mus musculus, UniProt P58462 326-579); test: PD-seq (MBP pull-down with sequencing); 20 mM Tris-HCl pH 7.5, 100 mM NaCl, 1.5 mM MgCl2, 0.4 uM protein, 0.1 uM dsDNA library, 30 min, room temperature, amylose pull-down; high values mean tight binding; settings: protein: recombinant; tags: His6-MBP; chain copies: 2; dsDNA, one strand shown
T1 sequence: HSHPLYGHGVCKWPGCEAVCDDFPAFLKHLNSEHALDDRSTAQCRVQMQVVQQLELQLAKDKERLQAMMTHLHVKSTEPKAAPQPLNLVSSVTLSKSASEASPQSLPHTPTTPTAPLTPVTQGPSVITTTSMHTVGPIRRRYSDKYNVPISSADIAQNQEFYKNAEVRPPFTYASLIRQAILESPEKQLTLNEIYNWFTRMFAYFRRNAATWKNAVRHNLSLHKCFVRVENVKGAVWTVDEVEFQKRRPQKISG
Summary of the method: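 E. coli-expressed mouse FoxP3 or FoxP1 fragment, N-terminus removed and tagged with His6-MBP, was used at 0.4 µM against 0.1 µM of a Klenow-filled degenerate double-stranded DNA library. After 30 min at room temperature in Tris pH 7.5 buffer with NaCl and MgCl2, complexes were pulled down on amylose resin and washed three times. Binding is pull-down over input reads-per-million enrichment from pooled replicates of the proteinase K-released, PCR-barcoded, Illumina-sequenced DNA.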

Sequence | binding signal
GATGATTGTTCTCCCAGCTGATGAATTTTTTATGTCGAGTAAACAAATTTTCCTAATCTTTCTGTTCAAGCGCCATCTAC | 1.04 RPM ratio (pull-down/input)
GATGATTGTTCTCCCAGCTGATGAATTGAAAACTTCGAGTAAACAAATTTTCCTAATCTTTCTGTTCAAGCGCCATCTAC | 0.915 RPM ratio (pull-down/input)
GATGATTGTTCTCCCAGCTGATGAATTCTGATATTCGAGTAAACAAATTTTCCTAATCTTTCTGTTCAAGCGCCATCTAC | 0.931 RPM ratio (pull-down/input)
GATGATTGTTCTCCCAGCTGATGAATTACGAAGATCGAGTAAACAAATTTTCCTAATCTTTCTGTTCAAGCGCCATCTAC | 0.987 RPM ratio (pull-down/input)
GATGATTGTTCTCCCAGCTGATGAATTTTTCGCATCGAGTAAACAAATTTTCCTAATCTTTCTGTTCAAGCGCCATCTAC | 1.25 RPM ratio (pull-down/input)
GATGATTGTTCTCCCAGCTGATGAATTTGCACGTTCGAGTAAACAAATTTTCCTAATCTTTCTGTTCAAGCGCCATCTAC | 0.98 RPM ratio (pull-down/input)
GATGATTGTTCTCCCAGCTGATGAATTTTCTCGCTCGAGTAAACAAATTTTCCTAATCTTTCTGTTCAAGCGCCATCTAC | 0.931 RPM ratio (pull-down/input)
GATGATTGTTCTCCCAGCTGATGAATTTAAGCGGTCGAGTAAACAAATTTTCCTAATCTTTCTGTTCAAGCGCCATCTAC | 0.823 RPM ratio (pull-down/input)
GATGATTGTTCTCCCAGCTGATGAATTTCGTAGCTCGAGTAAACAAATTTTCCTAATCTTTCTGTTCAAGCGCCATCTAC | 0.851 RPM ratio (pull-down/input)
GATGATTGTTCTCCCAGCTGATGAATTATGCTGTTCGAGTAAACAAATTTTCCTAATCTTTCTGTTCAAGCGCCATCTAC | 1.25 RPM ratio (pull-down/input)
GATGATTGTTCTCCCAGCTGATGAATTTACCATCTCGAGTAAACAAATTTTCCTAATCTTTCTGTTCAAGCGCCATCTAC | 1.19 RPM ratio (pull-down/input)
GATGATTGTTCTCCCAGCTGATGAATTGGGTACCTCGAGTAAACAAATTTTCCTAATCTTTCTGTTCAAGCGCCATCTAC | 0.88 RPM ratio (pull-down/input)
GATGATTGTTCTCCCAGCTGATGAATTGTCGGATTCGAGTAAACAAATTTTCCTAATCTTTCTGTTCAAGCGCCATCTAC | 0.94 RPM ratio (pull-down/input)
GATGATTGTTCTCCCAGCTGATGAATTGTTAGTTTCGAGTAAACAAATTTTCCTAATCTTTCTGTTCAAGCGCCATCTAC | 1.7 RPM ratio (pull-down/input)
GATGATTGTTCTCCCAGCTGATGAATTATTATGATCGAGTAAACAAATTTTCCTAATCTTTCTGTTCAAGCGCCATCTAC | 1.41 RPM ratio (pull-down/input)
GATGATTGTTCTCCCAGCTGATGAATTGAGAACCTCGAGTAAACAAATTTTCCTAATCTTTCTGTTCAAGCGCCATCTAC | 0.752 RPM ratio (pull-down/input)

Sequence | binding signal
GATGATTGTTCTCCCAGCTGATGAATTTAACCTATCGAGTAAACAAATTTTCCTAATCTTTCTGTTCAAGCGCCATCTAC | 0.851 RPM ratio (pull-down/input)
GATGATTGTTCTCCCAGCTGATGAATTCTCGTCCTCGAGTAAACAAATTTTCCTAATCTTTCTGTTCAAGCGCCATCTAC | 0.786 RPM ratio (pull-down/input)
GATGATTGTTCTCCCAGCTGATGAATTCTATACATCGAGTAAACAAATTTTCCTAATCTTTCTGTTCAAGCGCCATCTAC | 1.08 RPM ratio (pull-down/input)
GATGATTGTTCTCCCAGCTGATGAATTATACCCGTCGAGTAAACAAATTTTCCTAATCTTTCTGTTCAAGCGCCATCTAC | 0.898 RPM ratio (pull-down/input)
GATGATTGTTCTCCCAGCTGATGAATTGCAGCCATCGAGTAAACAAATTTTCCTAATCTTTCTGTTCAAGCGCCATCTAC | 1.1 RPM ratio (pull-down/input)
GATGATTGTTCTCCCAGCTGATGAATTAGACCTCTCGAGTAAACAAATTTTCCTAATCTTTCTGTTCAAGCGCCATCTAC | 0.791 RPM ratio (pull-down/input)
GATGATTGTTCTCCCAGCTGATGAATTTGAGAGTTCGAGTAAACAAATTTTCCTAATCTTTCTGTTCAAGCGCCATCTAC | 0.826 RPM ratio (pull-down/input)
GATGATTGTTCTCCCAGCTGATGAATTGCCGGGCTCGAGTAAACAAATTTTCCTAATCTTTCTGTTCAAGCGCCATCTAC | 0.798 RPM ratio (pull-down/input)
GATGATTGTTCTCCCAGCTGATGAATTGGTGCTGTCGAGTAAACAAATTTTCCTAATCTTTCTGTTCAAGCGCCATCTAC | 1.15 RPM ratio (pull-down/input)
GATGATTGTTCTCCCAGCTGATGAATTAGATCGTTCGAGTAAACAAATTTTCCTAATCTTTCTGTTCAAGCGCCATCTAC | 0.973 RPM ratio (pull-down/input)
GATGATTGTTCTCCCAGCTGATGAATTGTCTTGGTCGAGTAAACAAATTTTCCTAATCTTTCTGTTCAAGCGCCATCTAC | 0.917 RPM ratio (pull-down/input)
GATGATTGTTCTCCCAGCTGATGAATTAGTAACTTCGAGTAAACAAATTTTCCTAATCTTTCTGTTCAAGCGCCATCTAC | 1.08 RPM ratio (pull-down/input)
GATGATTGTTCTCCCAGCTGATGAATTTTTCCAGTCGAGTAAACAAATTTTCCTAATCTTTCTGTTCAAGCGCCATCTAC | 0.889 RPM ratio (pull-down/input)
GATGATTGTTCTCCCAGCTGATGAATTTTCCTGGTCGAGTAAACAAATTTTCCTAATCTTTCTGTTCAAGCGCCATCTAC | 0.82 RPM ratio (pull-down/input)
GATGATTGTTCTCCCAGCTGATGAATTGCTATGCTCGAGTAAACAAATTTTCCTAATCTTTCTGTTCAAGCGCCATCTAC | 1.01 RPM ratio (pull-down/input)
GATGATTGTTCTCCCAGCTGATGAATTTTAAATGTCGAGTAAACAAATTTTCCTAATCTTTCTGTTCAAGCGCCATCTAC | 0.957 RPM ratio (pull-down/input)
